The target in assay [1] is type 2 ryanodine receptor (RyR2) (Rattus norvegicus, UniProt B0LPN4). As to the kind of experiment: [3H]Ry binding to RyR2 (ventricular muscle membranes). Conditions: 5 μM compound.
Assay [2] concerns the target T1, type 1 ryanodine receptor (RyR1) (Oryctolagus cuniculus, UniProt P11716).
T1 construct: Membranes enriched in ryanodine receptors (RyRs) were obtained either from adult rabbit skeletal muscle; from tissue; host or cells: adult rabbit skeletal muscle membranes
Format: binding, rabbit. The following applies: 5 μM compound.

Assay [3] has as its target T2, human carboxylesterase CES2 (Homo sapiens, UniProt O00748).
T2 construct: made in house; host or cells: baculovirus-insect cells
T2 sequence (O00748 27-559): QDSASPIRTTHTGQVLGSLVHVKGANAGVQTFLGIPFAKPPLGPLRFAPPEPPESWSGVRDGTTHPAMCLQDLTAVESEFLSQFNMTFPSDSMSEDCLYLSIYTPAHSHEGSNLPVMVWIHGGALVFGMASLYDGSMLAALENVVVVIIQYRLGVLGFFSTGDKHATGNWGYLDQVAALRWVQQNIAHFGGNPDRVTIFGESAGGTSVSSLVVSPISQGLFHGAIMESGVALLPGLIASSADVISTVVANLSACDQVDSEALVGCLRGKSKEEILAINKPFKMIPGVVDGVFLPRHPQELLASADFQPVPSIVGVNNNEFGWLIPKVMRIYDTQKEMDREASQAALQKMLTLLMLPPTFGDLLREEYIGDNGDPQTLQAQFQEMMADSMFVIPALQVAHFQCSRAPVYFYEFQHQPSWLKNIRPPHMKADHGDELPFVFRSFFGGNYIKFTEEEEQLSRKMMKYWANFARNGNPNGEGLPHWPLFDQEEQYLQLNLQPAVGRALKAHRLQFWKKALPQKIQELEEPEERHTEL
As to the kind of experiment: biochemical.

Assay [4] deals with T3, human carboxylesterase CES3 (Homo sapiens, UniProt Q6UWW8).
T3 construct: made in house; host or cells: baculovirus-insect cells
T3 sequence (Q6UWW8 27-571): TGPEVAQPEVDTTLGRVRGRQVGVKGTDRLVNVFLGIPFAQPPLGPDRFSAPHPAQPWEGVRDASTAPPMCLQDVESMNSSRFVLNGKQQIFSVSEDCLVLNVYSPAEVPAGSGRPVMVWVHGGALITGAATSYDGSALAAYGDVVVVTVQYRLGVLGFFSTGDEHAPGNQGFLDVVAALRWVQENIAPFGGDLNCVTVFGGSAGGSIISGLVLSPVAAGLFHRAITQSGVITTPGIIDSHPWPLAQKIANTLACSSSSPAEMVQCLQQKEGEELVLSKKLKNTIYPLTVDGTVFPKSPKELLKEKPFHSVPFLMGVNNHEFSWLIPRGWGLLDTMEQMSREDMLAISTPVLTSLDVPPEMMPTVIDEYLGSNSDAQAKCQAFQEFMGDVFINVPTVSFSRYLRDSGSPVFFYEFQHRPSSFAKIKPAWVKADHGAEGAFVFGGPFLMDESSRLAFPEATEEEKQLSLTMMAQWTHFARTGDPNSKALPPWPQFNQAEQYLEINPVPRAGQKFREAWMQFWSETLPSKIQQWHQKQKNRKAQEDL
Description: human CES3 enzyme inhibition assay (CMNA substrate). Format: biochemical. Conditions: recombinant partially purified enzyme, CMNA 50 μM, counterscreen; mean ± SD. On the technique in general: The purpose of a counterscreen is to sort out artefacts and off-target activity.

The target in assay [5] is T1, type 1 ryanodine receptor (RyR1). Also on record: method as in Ahn et al. 2008. The following applies: previously shown; ref Ahn et al. 2008; cited from earlier work.

Chain of UniProt B0LPN4 (B0LPN4 whole entry): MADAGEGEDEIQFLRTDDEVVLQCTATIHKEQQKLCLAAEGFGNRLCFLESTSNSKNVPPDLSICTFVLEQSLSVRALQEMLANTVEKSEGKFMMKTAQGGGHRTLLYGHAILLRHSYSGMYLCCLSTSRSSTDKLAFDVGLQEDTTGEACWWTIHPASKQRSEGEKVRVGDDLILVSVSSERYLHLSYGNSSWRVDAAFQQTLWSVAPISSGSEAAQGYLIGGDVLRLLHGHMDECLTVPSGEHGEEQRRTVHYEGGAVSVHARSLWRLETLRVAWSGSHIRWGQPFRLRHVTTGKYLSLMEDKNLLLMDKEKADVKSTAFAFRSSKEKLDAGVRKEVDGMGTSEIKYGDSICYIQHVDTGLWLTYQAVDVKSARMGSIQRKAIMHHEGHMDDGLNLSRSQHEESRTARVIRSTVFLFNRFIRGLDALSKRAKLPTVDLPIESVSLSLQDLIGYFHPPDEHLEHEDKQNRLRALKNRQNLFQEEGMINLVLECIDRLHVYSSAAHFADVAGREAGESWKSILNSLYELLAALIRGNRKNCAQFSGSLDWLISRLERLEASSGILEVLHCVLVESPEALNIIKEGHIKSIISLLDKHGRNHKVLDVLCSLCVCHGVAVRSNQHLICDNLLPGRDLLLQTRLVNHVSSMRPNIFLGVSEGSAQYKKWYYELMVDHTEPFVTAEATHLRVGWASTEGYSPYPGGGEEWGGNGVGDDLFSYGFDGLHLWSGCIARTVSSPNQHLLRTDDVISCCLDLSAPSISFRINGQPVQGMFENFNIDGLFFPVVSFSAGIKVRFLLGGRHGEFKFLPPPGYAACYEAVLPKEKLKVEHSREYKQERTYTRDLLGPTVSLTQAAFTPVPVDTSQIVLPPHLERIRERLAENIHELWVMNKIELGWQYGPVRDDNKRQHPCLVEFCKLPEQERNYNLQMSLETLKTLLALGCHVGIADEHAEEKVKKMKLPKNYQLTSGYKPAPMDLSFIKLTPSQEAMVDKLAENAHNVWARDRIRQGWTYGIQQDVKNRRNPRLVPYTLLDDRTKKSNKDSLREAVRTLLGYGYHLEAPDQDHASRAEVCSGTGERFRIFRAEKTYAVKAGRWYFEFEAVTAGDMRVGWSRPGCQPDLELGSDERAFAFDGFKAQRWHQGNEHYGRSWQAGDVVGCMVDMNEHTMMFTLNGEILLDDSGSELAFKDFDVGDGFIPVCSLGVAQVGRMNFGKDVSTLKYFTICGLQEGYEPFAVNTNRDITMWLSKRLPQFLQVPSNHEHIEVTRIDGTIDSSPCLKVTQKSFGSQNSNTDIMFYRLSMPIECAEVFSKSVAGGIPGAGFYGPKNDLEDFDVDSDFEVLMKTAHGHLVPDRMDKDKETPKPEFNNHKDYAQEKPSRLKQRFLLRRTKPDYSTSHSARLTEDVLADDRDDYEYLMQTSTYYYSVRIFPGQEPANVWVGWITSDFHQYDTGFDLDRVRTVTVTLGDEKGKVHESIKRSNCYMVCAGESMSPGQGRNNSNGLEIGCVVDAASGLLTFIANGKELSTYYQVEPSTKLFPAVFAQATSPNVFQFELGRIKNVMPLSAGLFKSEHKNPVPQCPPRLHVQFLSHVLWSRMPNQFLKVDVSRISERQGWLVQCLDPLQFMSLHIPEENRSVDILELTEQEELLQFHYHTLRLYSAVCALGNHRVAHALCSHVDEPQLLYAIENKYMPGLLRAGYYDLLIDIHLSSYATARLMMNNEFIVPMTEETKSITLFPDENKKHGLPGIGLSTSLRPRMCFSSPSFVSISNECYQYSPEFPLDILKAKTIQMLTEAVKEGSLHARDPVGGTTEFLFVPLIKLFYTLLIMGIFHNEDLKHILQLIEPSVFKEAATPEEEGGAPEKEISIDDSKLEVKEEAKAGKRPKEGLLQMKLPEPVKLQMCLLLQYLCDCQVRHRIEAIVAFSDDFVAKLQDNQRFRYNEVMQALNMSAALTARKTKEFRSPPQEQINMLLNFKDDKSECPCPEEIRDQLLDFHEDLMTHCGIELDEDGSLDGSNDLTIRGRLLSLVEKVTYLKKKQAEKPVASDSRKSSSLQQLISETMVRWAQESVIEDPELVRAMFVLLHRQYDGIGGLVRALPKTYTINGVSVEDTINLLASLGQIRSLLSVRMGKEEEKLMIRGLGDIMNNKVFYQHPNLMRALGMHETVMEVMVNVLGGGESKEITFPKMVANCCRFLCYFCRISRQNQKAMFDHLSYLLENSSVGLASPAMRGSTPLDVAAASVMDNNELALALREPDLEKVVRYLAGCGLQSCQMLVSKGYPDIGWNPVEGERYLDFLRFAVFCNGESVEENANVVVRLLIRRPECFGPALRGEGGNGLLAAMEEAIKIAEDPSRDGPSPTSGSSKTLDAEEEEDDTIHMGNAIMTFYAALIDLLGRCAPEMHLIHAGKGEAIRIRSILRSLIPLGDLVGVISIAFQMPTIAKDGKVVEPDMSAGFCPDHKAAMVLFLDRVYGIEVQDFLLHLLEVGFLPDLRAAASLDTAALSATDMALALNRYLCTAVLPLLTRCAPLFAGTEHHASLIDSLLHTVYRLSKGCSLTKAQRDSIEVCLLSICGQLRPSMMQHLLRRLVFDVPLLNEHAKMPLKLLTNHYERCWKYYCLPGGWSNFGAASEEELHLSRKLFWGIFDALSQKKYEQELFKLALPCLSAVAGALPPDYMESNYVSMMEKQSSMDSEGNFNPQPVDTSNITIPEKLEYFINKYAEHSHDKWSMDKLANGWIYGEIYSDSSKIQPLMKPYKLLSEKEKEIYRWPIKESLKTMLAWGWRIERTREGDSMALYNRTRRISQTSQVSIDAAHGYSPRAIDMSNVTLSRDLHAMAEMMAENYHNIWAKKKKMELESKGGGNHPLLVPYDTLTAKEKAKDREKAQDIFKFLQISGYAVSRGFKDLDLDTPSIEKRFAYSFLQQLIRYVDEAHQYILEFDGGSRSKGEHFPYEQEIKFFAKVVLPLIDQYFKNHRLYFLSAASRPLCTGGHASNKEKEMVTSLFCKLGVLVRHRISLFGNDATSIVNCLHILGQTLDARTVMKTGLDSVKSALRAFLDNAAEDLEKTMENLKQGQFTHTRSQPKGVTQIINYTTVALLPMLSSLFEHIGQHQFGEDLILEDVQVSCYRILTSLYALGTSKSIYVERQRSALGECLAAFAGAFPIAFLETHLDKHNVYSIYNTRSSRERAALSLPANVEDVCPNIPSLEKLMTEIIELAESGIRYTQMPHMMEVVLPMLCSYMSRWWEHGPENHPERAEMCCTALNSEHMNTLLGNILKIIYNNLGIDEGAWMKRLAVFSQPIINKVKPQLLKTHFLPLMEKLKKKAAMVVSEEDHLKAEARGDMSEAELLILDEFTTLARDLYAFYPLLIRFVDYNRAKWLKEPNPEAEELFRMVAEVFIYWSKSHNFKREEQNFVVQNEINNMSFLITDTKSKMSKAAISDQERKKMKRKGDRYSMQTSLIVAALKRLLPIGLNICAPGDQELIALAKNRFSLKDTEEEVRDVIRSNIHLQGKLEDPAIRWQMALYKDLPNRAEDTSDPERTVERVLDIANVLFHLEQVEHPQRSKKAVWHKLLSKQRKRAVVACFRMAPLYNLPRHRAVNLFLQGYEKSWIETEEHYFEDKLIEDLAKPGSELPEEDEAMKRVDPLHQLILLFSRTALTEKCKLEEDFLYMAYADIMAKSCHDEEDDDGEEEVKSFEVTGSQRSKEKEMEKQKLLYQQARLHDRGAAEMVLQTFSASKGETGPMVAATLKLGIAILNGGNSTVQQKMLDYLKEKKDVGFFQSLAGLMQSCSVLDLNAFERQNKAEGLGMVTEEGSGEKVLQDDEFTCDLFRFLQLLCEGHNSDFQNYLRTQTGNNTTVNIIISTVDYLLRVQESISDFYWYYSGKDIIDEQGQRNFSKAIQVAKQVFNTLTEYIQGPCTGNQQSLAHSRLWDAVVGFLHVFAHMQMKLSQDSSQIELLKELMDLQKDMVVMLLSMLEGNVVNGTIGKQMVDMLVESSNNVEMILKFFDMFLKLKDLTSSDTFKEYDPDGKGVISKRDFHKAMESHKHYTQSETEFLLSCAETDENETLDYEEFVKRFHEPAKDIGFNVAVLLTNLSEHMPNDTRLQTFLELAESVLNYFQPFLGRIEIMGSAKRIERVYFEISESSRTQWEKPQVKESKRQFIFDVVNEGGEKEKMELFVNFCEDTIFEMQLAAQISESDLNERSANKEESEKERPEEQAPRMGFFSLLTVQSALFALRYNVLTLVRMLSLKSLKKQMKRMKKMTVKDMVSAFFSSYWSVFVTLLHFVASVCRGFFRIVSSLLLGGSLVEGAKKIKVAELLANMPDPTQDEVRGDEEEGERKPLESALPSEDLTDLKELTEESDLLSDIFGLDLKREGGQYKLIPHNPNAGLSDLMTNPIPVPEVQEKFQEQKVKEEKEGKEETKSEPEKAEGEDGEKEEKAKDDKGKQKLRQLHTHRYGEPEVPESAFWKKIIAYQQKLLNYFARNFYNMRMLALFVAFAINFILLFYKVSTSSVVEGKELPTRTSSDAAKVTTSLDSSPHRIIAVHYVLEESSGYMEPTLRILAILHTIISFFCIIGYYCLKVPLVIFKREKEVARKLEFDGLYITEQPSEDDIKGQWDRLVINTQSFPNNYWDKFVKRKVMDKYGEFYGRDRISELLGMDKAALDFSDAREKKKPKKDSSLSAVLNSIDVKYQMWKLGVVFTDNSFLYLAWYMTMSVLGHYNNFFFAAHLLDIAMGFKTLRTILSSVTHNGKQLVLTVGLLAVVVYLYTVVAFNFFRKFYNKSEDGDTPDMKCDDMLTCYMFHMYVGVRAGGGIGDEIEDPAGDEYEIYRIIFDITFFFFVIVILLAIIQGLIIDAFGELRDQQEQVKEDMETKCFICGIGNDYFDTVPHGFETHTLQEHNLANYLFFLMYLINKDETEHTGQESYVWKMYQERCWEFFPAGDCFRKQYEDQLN

Regarding `CC1(C)C(C=C(Cl)Cl)C1C(=O)OC(C#N)c1cccc(Oc2ccccc2)c1` (stereo not drawn) [α-cypermethrin], the “effect on [3H]Ry binding to RyR2 (counterscreen)” value (from here on “effect on [3H]Ry binding to RyR2”) in assay [1] is on record as “no significant effect”.

With `CC1(C)C(C=C(Cl)Cl)C1C(=O)OC(C#N)c1ccc(F)c(Oc2ccccc2)c1` (stereo not shown) [baythroid], the “effect on [3H]Ry binding to RyR2” value in assay [1] is “no significant effect”. For the same compound, the “effect on [3H]Ry binding to RyR1 (counterscreen)” value in assay [2] was “no significant effect”. Take `CC1(C)[C@H](C(=O)O[C@H](C#N)c2cccc(Oc3ccccc3)c2)[C@@H]1C=C(Br)Br` [deltamethrin]: in assay [1], the “effect on [3H]Ry binding to RyR2” value was “no significant effect”. With `O=P(Oc1ccccc1)(Oc1ccccc1)Oc1ccccc1` [TPP, triphenyl phosphate], half-maximal inhibition in assay [3] (IC50) was put at 50 ± 2 nM. For the compound `COC(=O)C=C(C)OP(=O)(OC)OC` [Phosdrin, phosdrin], the half-maximal inhibitory concentration (IC50) (commonly the concentration needed to halve the response being measured) in assay [4] came out at 1.1 ± 0.1 nM.

`O=S(=O)(NC1CCCCC1)c1nc2ccccc2s1` [N-cyclohexyl-2-benzothiazyl sulfonamide]: the “effect on [3H]Ry binding to RyR2” value in assay [1] is listed as “no significant effect”. For the same compound, the “effect on [3H]Ry binding to RyR1 (counterscreen)” value in assay [2] is given as “no significant effect”. Turning to `Oc1cc(Cl)ccc1Oc1ccc(Cl)cc1Cl` [Triclosan, triclosan], the “effect on [3H]Ry binding to RyR1 (earlier work)” value in assay [5] was “increase”. Take `CCOP(=S)(OCC)Oc1cc(C)nc(N(CC)CC)n1` [Primiphos-ethyl]: the IC50 in assay [4] worked out at 180 ± 20 nM.

The values are drawn from article PMC2799460 (Environmental Health Perspectives, 2009).
